Test results from PMC4336329 (PLoS ONE, 2015).
Screen size: about 310,000 compounds; about 14,000 (4.5%) showed an effect of 50% or more. The effect is printed as a negative number. This is one part of the list.

What follows are molecules tested against human ether-à-go-go-related gene (hERG) potassium channel (human, UniProt Q12809) (assay: primary screen, population patch clamp on CHO cells stably expressing hERG).
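Note: peak tail current of the secondary pulse compared with the same well before compound.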

Sequence of human ether-à-go-go-related gene (hERG) potassium channel (Q12809 whole entry, looked up): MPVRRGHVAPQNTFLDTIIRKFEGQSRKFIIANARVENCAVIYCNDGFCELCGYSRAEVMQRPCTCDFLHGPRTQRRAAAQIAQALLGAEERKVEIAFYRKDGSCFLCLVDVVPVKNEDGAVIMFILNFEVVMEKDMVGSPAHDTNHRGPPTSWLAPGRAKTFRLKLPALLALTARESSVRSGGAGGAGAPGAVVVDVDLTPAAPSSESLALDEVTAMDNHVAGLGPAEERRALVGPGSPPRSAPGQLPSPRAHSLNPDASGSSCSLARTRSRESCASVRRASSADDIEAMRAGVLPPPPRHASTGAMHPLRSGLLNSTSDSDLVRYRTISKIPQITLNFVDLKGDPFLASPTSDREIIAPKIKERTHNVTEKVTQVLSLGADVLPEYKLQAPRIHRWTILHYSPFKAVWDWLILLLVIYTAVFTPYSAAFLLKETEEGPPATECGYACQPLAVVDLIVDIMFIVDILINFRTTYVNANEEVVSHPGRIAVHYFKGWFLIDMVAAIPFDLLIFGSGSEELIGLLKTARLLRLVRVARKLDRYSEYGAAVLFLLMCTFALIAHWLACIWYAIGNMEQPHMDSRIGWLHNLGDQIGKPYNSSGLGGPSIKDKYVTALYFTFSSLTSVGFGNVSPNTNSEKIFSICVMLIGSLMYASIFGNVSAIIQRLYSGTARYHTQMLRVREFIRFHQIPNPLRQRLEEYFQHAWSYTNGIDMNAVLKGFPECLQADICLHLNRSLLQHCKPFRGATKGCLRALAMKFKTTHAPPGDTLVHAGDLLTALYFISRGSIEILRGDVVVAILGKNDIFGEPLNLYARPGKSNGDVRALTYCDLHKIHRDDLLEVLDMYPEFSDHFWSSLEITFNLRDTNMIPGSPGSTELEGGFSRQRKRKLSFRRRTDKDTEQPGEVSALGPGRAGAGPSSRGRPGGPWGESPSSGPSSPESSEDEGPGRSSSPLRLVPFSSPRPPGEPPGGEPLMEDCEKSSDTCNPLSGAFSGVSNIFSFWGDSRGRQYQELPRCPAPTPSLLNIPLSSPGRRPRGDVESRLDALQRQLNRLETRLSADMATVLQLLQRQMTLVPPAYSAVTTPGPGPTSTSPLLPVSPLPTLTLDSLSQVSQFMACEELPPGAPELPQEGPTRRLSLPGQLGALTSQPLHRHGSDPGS

SMILES | hERG current change (%, negative = inhibition) at 10uM [%]
COC(=O)c1ccc(CNC(=O)COC(=O)c2ccccc2-c2ccccc2)cc1 | -20.6
O=C(COC(=O)c1n[nH]c(=O)c2ccccc12)c1ccc(Cl)cc1 | 8.49
CN(C)S(=O)(=O)c1cccc(-c2nnc(-c3ccccc3)o2)c1 | -4.52
O=C(c1cc2cc(Br)cc(Br)c2oc1=O)N1CCOCC1 | -17.7
CN(C)CCCNC1CS(=O)(=O)CC1O.Cl (centres unmarked) | 6.43
O=C(O)c1cc2c(s1)-c1ccccc1CC2 | 1.71
Cc1ccc(NS(=O)(=O)c2cccc(C(=O)N3CCN(c4ncccn4)CC3)c2)cc1 | 6.31
CCCCNC(=O)c1onc(CSc2ccccc2F)c1C(=O)O | 17.9
Cc1c(NC(=S)N/C(=N/S(=O)(=O)c2ccccc2)c2ccccc2)c(=O)n(-c2ccccc2)n1C | 20.2
O=C(CN1CCOCC1)NNc1nc(-c2ccccc2)c2cc(Br)ccc2n1 | -38.7
Cc1ccc(S(=O)(=O)Nc2ccc3nc(N)sc3c2)cc1 | -11
Cc1cc(CNC(=O)c2cccc([N+](=O)[O-])c2)c2ccccc2n1 | 6.72
COc1cccc(NC(=O)CN2CCN(C(=O)c3ccco3)CC2)c1 | 13.4
C=CCNC(=O)CSc1nc2ccccc2c(=O)n1CCc1ccc(OC)c(OC)c1 | -15.4
CCOc1ccc(-c2nnc(-c3cccs3)o2)cc1 | 11
Cn1c(Sc2ccc(C(=O)O)cc2[N+](=O)[O-])nnc1-c1ccccc1 | -6.68
Cc1ccc(C2(O)CCN3CCCCC32)cc1 (centres unmarked) | 12.6
COc1ccc(CNCc2c(C(=O)N(C)C)nc3ccc(Cl)cn23)c(OC)c1 | -11.1
Cc1cccc(C)c1NC1=NC(C)(C)N=C(N)N1 | 7.79
O=C(c1cccc(S(=O)(=O)N2CCOCC2)c1)N1CCOCC1 | 29.3
O=c1[nH]c(O)c(C=NC2CCCCC2)c(=O)[nH]1 | 1.32
COc1ccc(NS(=O)(=O)c2cccc(C(=O)Nc3cccc(C(=O)O)c3)c2)cc1 | 27.8
CCn1cc(C(=O)N2CCOCC2)c2ccccc21 | 5.41

SMILES | hERG current change (%, negative = inhibition) at 10uM [%]
CC1CCCN(c2nc3c(c(=O)n(C)c(=O)n3C)n2CCSc2nc3ccccc3o2)C1 (centres unmarked) | -6.73
CC(=O)c1cccc(N2C(=NC(=O)C(C)C)SC3CS(=O)(=O)CC32)c1 (centres unmarked) | 12.4
COC(=O)c1ccc(N2CCN(C(C)=O)CC2)c(NC(=O)COc2ccccc2C)c1 | -17.3
CC(C)(C)NC(=O)CN(C(=O)Cn1nnc(-c2ccccc2F)n1)c1cccc2c1CCCC2 | -17.7
Cn1c(SCC(=O)Nc2cccc(S(=O)(=O)NC3=NCCCCC3)c2)nnc1-c1ccncc1 | 2.16
CCN(CC(=O)Nc1cc(Cl)ccc1C)C(=O)CCS(=O)(=O)c1ccc(C)cc1 | -14.2
CCOc1ccc2ccccc2c1/C=N/NC(=O)CC1(C)OCCCO1 | -4.84
NS(=O)(=O)c1cc(C(=O)OCC(=O)Nc2ccc(N3CCCCC3)cc2)ccc1Cl | 5.39
CCN(CC)S(=O)(=O)c1cc(C(=O)c2nccn2C)ccc1Cl | -11.4
COc1ccccc1NC(=O)CSc1nnnn1-c1ccccc1F | 0.354
COc1cccc(N=CC2=C(O)CC(C)(C)CC2=O)c1 | -6.91
Cc1ccc(-n2c(=S)sc3c(=O)n(-c4ccccc4C)c(SCC(=O)O)nc32)cc1C | 13.5
CNC(=O)Nc1nnc(C(C)(C)C)s1 | 15.3
CCCc1cc(=O)[nH]c(SCC(=O)c2cc(C)n(C(C)COC)c2C)n1 (centres unmarked) | -6.74
COc1cccc(N2CC(NS(=O)(=O)c3ccc(Cl)cc3)CC2=O)c1 (centres unmarked) | -6.53
CC#CC(=O)N1CCCC(C(=O)c2ccc(SC)cc2)C1 (centres unmarked) | -3.3
CC(CC12CC3CC(CC(C3)C1)C2)NCc1ccccc1O.Cl (centres unmarked) | -3.36
CC(=Nc1ccc2c(c1)CCC2)c1c(O)n(-c2ccccc2)c(=O)[nH]c1=O | 14
COc1cc(=O)[nH]c(=O)n1C(=O)Cc1ccccc1 | 8.18
NCC(c1ccccc1Cl)c1c[nH]c2ccccc12 (centres unmarked) | 12.8
O=C(CCn1c(=O)oc2ccccc21)Nc1nccs1 | 4.95
S=C(NCCC(c1ccccc1)c1ccccc1)Nc1ccc(Cl)cc1 | 4.29
COc1cc(OC)cc(C(=O)NCC(=O)OCC(=O)N2CCc3ccccc32)c1 | -2.71

SMILES | hERG current change (%, negative = inhibition) at 10uM [%]
CCCNc1nc(C)c(C(C)=O)cc1C#N | 18.6
CCN(CC)S(=O)(=O)c1ccc(NC2c3ncccc3C(=O)N2Cc2ccccc2)cc1 (centres unmarked) | -41
Cc1ccccc1Nc1cc2ccccc2c(=O)[nH]1 | -17.9
C=CCn1c(C)c(C(C)=O)c(N2CCCC2)nc1=S | 9.64
CCOC(=O)N1CCN(CCC(=O)Nc2cc(C)ccc2C)CC1 | 5.35
O=S(=O)(NCC1CCCO1)c1ccc(S(=O)(=O)N(Cc2ccccc2F)C2CCCCC2)cc1 (centres unmarked) | 0.619
CCn1c(=O)c(C(=O)CN2CCOCC2)c(N)n(Cc2ccccc2)c1=O | -19
O=C(CN(Cc1ccco1)Cc1cccs1)N1CCN(S(=O)(=O)c2cccc(F)c2)CC1 | -48.7
Cc1cc(C)c(S(C)(=O)=O)c(Sc2ccc(Cl)cc2)n1 | 17.2
COc1ccc(/C=N/N=C/c2ccc(OC)c(O)c2)cc1O | 23.2
O=C(c1cc(COc2c(F)cccc2F)on1)N1CCC(c2ccccc2F)C1 (centres unmarked) | 20.4
Cc1c(C(=O)C(=O)N2CCCc3ccccc32)c2ccccc2n1C | -5.08
O=C(Nc1cccnc1)c1cc2c(ccc3ccccc32)o1 | 1.08
O=C(CCn1ccc2cc(S(=O)(=O)N3CCCC3)ccc21)NCCc1ccccc1 | -16.9
CC(=O)c1cccc(NC(=O)C2(c3ccccc3)CC2(Cl)Cl)c1 (centres unmarked) | -6.27
CCO[C@@H]1OC(C(=O)NC2CC2)=C[C@H](c2ccccc2)[C@H]1CCCO | 8.58
Cc1cccc(C)c1NC(=O)CCCN1CC(C)OC(C)C1 (centres unmarked) | 4.1
C#CCOCCOCCOCCNc1nc(N2CCOCC2)nc(N2CCN(C(=O)[C@H](Cc3ccc(O)cc3)n3cc([C@@H](N)CC(C)C)nn3)CC2)n1.Cl | 10.7
COc1ccc(Cc2nnc(SC(C)C(=O)Nc3ccc(F)cc3Cl)o2)cc1 (centres unmarked) | -2.31
O=C(CS(=O)(=O)Cc1ccccc1)N1CCN(c2cccc(C(F)(F)F)c2)CC1 | -27.7
O=C(NCCCn1ccnc1)Nc1ccc(Cl)c(Cl)c1 | -36.3
Cc1cc(C)c2c(N)c(-c3nc4ccccc4[nH]3)sc2n1 | -2.46
O=C(O)c1ccccc1C(=O)c1ccc(Cl)cc1 | 8.46

SMILES | hERG current change (%, negative = inhibition) at 10uM [%]
NC(=O)c1cnn2c1NC(c1ccc(F)cc1)CC2C(F)(F)F (centres unmarked) | -22.7
Cc1occc1C(=O)N1CCN(c2ccc(Cl)cc2)CC1 | -4.41
CCOc1ccc(NC(=O)CNC(=O)c2cn(-c3ccccc3OC)c(=O)c3ccccc23)cc1 | -9.87
C=CCc1ccccc1OCC(CN1CCCCC1)OC(C)=O.Cl (centres unmarked) | -30.6
Cc1cccc(OCc2nn[nH]n2)c1C | 4.8
O=C(Nc1ccon1)c1ccc(Br)s1 | -9.89
Cn1c(O)c(N=Nc2cccc(S(=O)(=O)N3CCOCC3)c2)c(=O)n(C)c1=O | 2.24
COc1cccc(N=C2CC(C)(C)CC(=O)/C2=C(/O)c2ccccc2)c1 | -30.1
Nc1ccc(-c2nnc(-c3ccccc3)o2)cc1 | -0.0392
CCN(C(=O)c1cccc(Br)c1)c1ccccc1 | 9.79
Cc1occc1-c1nnc(SCC(=O)NC2CCCC2)n1C | 15.5
C[C@@H]1C(NC(=O)c2ccccc2)CC2CC1C2(C)C (some centres unmarked) | 6.83
CCn1c(C)nc2cc(C(=O)NNC(=S)NC(=O)c3ccc(OC)cc3)ccc21 | 2.55
O=S(=O)(c1ccc2c(c1)OCCO2)N1CCN(c2ncnc3sccc23)CC1 | -34.5
Cc1c(C(=O)NCCN(C)C)oc2ccc(S(=O)(=O)N3CCCC3)cc12 | 13
Cc1ccc(C)c(NC2=C(Cl)C(=O)OC2OC(C)C)c1 (centres unmarked) | 16.2
COc1ccc(S(=O)(=O)N(CCN2CCOCC2)Cc2cc(OC)ccc2OC)cc1 | -10.7
O=C(C1CCN(S(=O)(=O)N2CCOCC2)CC1)N1CCN(Cc2ccccc2)CC1 | -9.22
O=S(=O)(NCc1ccccc1)c1ccc2c(c1)OCCO2 | -8.08
C=CCn1c(SCC(=O)Nc2ccccc2)nc2scc(-c3cccs3)c2c1=O | 8.69
